# Reference: patent publication US10487153B2, “Carbonic anhydrase IX-specific antibodies and uses thereof” (National Research Council of Canada, priority 2015, dated 2019)
# Columns and labels:
# [1] = target: T1, low hCA-IX expressing sk-rc-59 cells (Homo sapiens, UniProt Q16790); assay: Flow cytometry; format: cell-based; conditions: 10 μg/mL mAb; low CA-IX expression
# T1 construct: endogenous in cells; host or cells: sk-rc-52 (high CA-IX) and sk-rc-59 (low CA-IX) human renal carcinoma cells
# [2] = target: rhCA-IX ECD monomer or dimer (Homo sapiens, UniProt Q16790)
# rhCA-IX ECD [3] = target: T2, rhCA-IX ECD (Homo sapiens, UniProt Q16790); format: biochemical; conditions: mAb:rhCA-IX ECD mixture ratio 1:1
# Method: The kinetic measurements were carried out in 96-well solid black microplates (Corning) at pH 7.5 in a reaction mixture containing 25 mM MOPS, 15 mM Na2SO4, 0.5 mM EDTA and 2% (v/v) DMSO (final concentration). A final enzyme concentration of 0.5 μM for the dimer or 1 μM for the monomer was used. […] Reactions were initiated by the addition of 100 μM 4-Methylumbelliferylacetate. […] Rates were determined in the initial and ‘end portion’ of each of the curves.
# sk-rc-52 cells = assay: Surrogate ADC assay (Mab-Zap saporin secondary antibody); format: cell-based, human; conditions: 10 nM mAb with 20 nM Mab-Zap, 72 h, Sulforhodamine; versus M75 mAb
# Method: mAb were evaluated in a surrogate ADC assay using the high hCA-IX-expressing sk-rc-52 cells. The ADC assay was carried out using a commercially available ADC kit (atsbio.com) according to the manufacturer's instructions with some modifications. Briefly, sk-rc-52 (expressing high levels of hCA-IX) and sk-rc-59 (expressing low levels of hCA-IX) cells were seeded in RPMI/5% FBS in 96-well plates at a density of 5000 and 3000 cells/well, respectively. The next day, 10 nM of mAb was mixed with 20 nM of the Mab-Zap secondary antibody from the ADC kit, incubated (30 min, RT) prior to diluting the mixture 11× in RPMI/5% cell growth medium, and 10 μL of these mixtures were added to the cells (experiment carried out in triplicate). After 72 h of incubation (37° C., 5% CO2, humidified incubator), cell viability (bio mass) was determined using Sulforhodamine. For this procedure, 25 μl of 50% TCA was added to each well and plates were incubated (1 h, 4° C.). Plates were then washed 4× with tap water and air-dried at room temp. 100 μl of 0.4% (wt/vol in 1% acetic acid) SRB solution was added to each well and incubated (30 min, RT). […] Viability of the cells is expressed as the ratio of the mAb-ZAP secondary conjugate alone.
# rhCA-IX ECD [4] = target: T2, rhCA-IX ECD; assay: Reverse Phase Protein Array (RPPA); format: binding
# Method: Proteins were spotted in duplicate using a Genetix QArray2 contact printer with SMP3 split pins (ArrayIt) on 16 pads nitrocellulose slides (Whatman FAST) using a two pins configuration to print two identical proteins simultaneously. […] Printing was done at 20° C. and 60% constant humidity. The source plate containing native proteins was kept at about 12° C. on the robot's chilling device and the plate with denatured proteins was kept at 22° C. during printing to avoid any SDS precipitation. Once printed, the slides were stored for one hour at room temperature in a desiccator at 5 to 10% humidity, to dry the spotted proteins.
# Slides were assembled in the 16-well incubation chambers (Whatman) and in the multi-slide frame (Whatman) that is a reusable holder for up to four slides. In this assembly, a liquid-tight well was created on top of each individual array pad. To block nonspecific binding, 100 μl of blocking solution (1×PBS/3% BSA/0.1% Tween20) was added to each well. Each chamber was sealed with aluminum tape to prevent evaporation and incubated (1 h, RT) with gentle agitation. The nitrocellulose pads were never allowed to dry from this step on. mAb were prepared by mixing 30 μl of each crude hybridoma supernatant with 30 μl of incubation solution (1×PBS/2% BSA/0.05% Tween20/Rabbit anti-GFP-AlexaFluor555 (0.9 μg/ml)). Blocking solution was aspired and replaced by the diluted mAb solution, incubation chambers were sealed with aluminum tape, and incubated while protected from light (2 h RT, 130 rpm shaking). mAb solutions were removed, wells were washed three times with 100 μl washing solution (1×PBS/0.1% Tween20), and the chambers were dismantled. At this point, slides were washed three times 5 minutes in 1×PBS/0.1% Tween20 followed by one 5 minutes wash in 1×PBS. After the last wash, excess liquid was removed without letting the nitrocellulose dry. To detect the mAb bound to their antigen, 270 μl of the secondary antibody Cy5-conjugated AffiniPure F(ab′)2 fragment donkey anti-mouse IgG (H+L) (1 μg/ml in 1×PBS/2% BSA/0.05% Tween20, was added. The slide was then covered with a plastic cover-slip and incubated protected from light in a high humidity chamber (RT) for 45 minutes, with shaking (100 rpm). The slides were then washed (as described above) and dried by centrifugation in a vertical position.
# To normalize for ‘slide-to-slide’ signal intensity variations, the binding intensity of each mAb was divided by the median of the entire slide mAb binding intensities to native proteins.
# The result is the mAb binding affinity in fluorescence unit (FU) above median. Antibody-antigen binding was considered specific when the binding affinity value was at least 2 times above the binding affinities standard deviation of all spotted proteins.
# rhCA-IX ECD [5] = target: T2, rhCA-IX ECD; assay: Western blot on purified rhCA-IX ECD; format: binding; conditions: reducing and non-reducing conditions
# Method: Nitrocellulose membranes were prepared and probed with the individual CA-IX Abs either non-purified CM (200 μL) or purified at a concentration of 5 μg/mL. Immunoreactive bands were visualized by chemiluminescence (Perkin-Elmer).
# rhCA-IX ECD Dimer = rhCA-IX ECD Dimer (Homo sapiens, UniProt Q16790); conditions: hybridoma-derived mAb
# Method: (§1) All SPR assays were carried out using a BioRad ProteOn XPR36 instrument (Bio-Rad Laboratories (Canada) Ltd. (Mississauga, ON)) with PBST running buffer at a temperature of 25° C. The polyclonal goat anti-mouse Fc (Jackson Immuno Research Laboratories Inc.) capture surface was generated using a GLC sensorchip activated by a 1:10 dilution of the standard BioRad sNHS/EDC solutions injected for 140 s at 100 μL/min in the analyte (horizontal) direction. Immediately after the activation, a 10 μg/mL solution of anti-human Fc antibody in 10 mM NaOAc pH 4.5 was injected in the analyte (horizontal) direction at a flow rate of 25 μL/min until approximately 4000 resonance units (RUs) were immobilized. Remaining active groups were quenched by a 140 s injection of 1M ethanolamine at 100 μL/min in the horizontal direction; this also ensures mock-activated interspots are created for blank referencing.
# (§2) Sensorgrams were aligned and double-referenced using the buffer blank injection and interspots, and the resulting sensorgrams were analyzed using ProteOn Manager software v3.1. The double-referenced sensorgrams were fit to the 1:1 binding model to determine the rate constants for association and dissociation (ka and kd) and the corresponding affinity (KD).
# [6] = target: rhCA-IX ECD Mixture (Monomer + Dimer) (Homo sapiens, UniProt Q16790); conditions: hybridoma-derived mAb, 25° C.
# Method: as §1, §2
# rhCA-IX ECD Monomer = rhCA-IX ECD Monomer (Homo sapiens, UniProt Q16790); conditions: hybridoma-derived mAb
# Method: as §1, §2
# [7] = Purified Antigen, binding affinity in fluorescence unit above median
molecule,measurement,setting,value
"12H8: hybridoma-derived mouse IgG1, κ anti-CA-IX mAb; VL SEQ ID NO:23, VH SEQ ID NO:24; binds PG-like domain (antibody, V domains shown, mAb 12H8 VH; mAb 12H8 VL) VH: QIQLVQSGPELKKPGETVKISCKASGYTFTNYGMNWVQQAPGKGLKWMGWINTYTGEPTYADDFKGRFAFSLETSASTAYLQINNLKNEDMATYFCARGGIATPTSYWGQGTTLTVSS VL: DVVMTQTPLTLSVTIGQPASISCKSSQSLLDSDGKTYLNWLLQRPGQSPKRLIYLVSKLDSGVPDRFTGSGSGTDFTLKISRVEAEDLGVYYCCQGTHFPWTFGGGTKLEIK",binding to sk-rc-59 cells (flow cytometry),[1],virtually no binding was detected
same,competition for binding (epitope binning),[2],do not compete
same,% rhCA-IX ECD Activity,rhCA-IX ECD [3],102.8%
same,Comments,rhCA-IX ECD [3],No inhibition
same,Data 1,rhCA-IX ECD [3],102.8
same,reduction of cell viability,sk-rc-52 cells,equal to or better than the M75 mAb
same,Denatured (D),rhCA-IX ECD [4]; Antigen in protein mixture,4.15 FU
same,Native (C),rhCA-IX ECD [4]; Antigen in protein mixture,50.26 FU
same,mAb binding specificity,rhCA-IX ECD [4]; Antigen in protein mixture,rhCA-IX ECD
same,Denatured (B),rhCA-IX ECD [4]; [7],142.32 FU
same,Native (A),rhCA-IX ECD [4]; [7],158.01 FU
same,detection of rhCA-IX by Western blot,rhCA-IX ECD [5]; after purification of the mAb,able to detect
same,detection of rhCA-IX ECD by Western blot,rhCA-IX ECD [5]; non-purified mAb (CM),did not detect
same,ka,rhCA-IX ECD Dimer,2.27 × 10^6
same,kd,rhCA-IX ECD Dimer,3.22 × 10^−4
same,ka,[6],1.13 × 10^6
same,kd,[6],9.70 × 10^−12
same,kd,rhCA-IX ECD Monomer,Biphasic
